# Measured values from PubChem BioAssay (NCATS).
# The shares of active, inactive and inconclusive entries below differ from those in the screen. For some assays here: Where the call is inconclusive, the potency comes from a doubtful curve fit. For some assays here: “Side channel” marks fits to a control or component signal instead of the main read-out. The source made the active and inactive calls. Unless noted, calls come from the whole dose curve; as a rule, active = well fitted curve in either direction with a large enough effect (not every such curve was filed as active); inconclusive = small, poorly fitted or top-dose-only effect, or another doubt; inactive = flat fitted curve, though single readings scatter.
# Legend:
# [1] = NFAT Signaling Pathway (AID 444); conditions: Jurkat NFAT-bla M1, carbachol, beta-lactamase ratio, 5 h; at 17.2 µM (top of the series) unless noted;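 note: carbachol stimulus at about its EC50 of 1 µM final; % is set by controls: 0 for no effect and ±100 for the full control effect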
# Method in brief: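 Jurkat cells with NFAT-driven β-lactamase reporter and co-expressed M1 receptor, stimulated with carbachol (final 1 uM, ~EC50), compound titration, 5 h at 37 °C. CCF4 loaded 1 h at RT; 460/530 nm ratio gave %activity and AC50.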
# [2] = Stat Signaling Pathway (AID 446); conditions: ME-180 SIE beta-lactamase reporter, IL-6 stimulated, 5 h; at 7.69 µM (top of the series) unless noted;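 note: ME-180 cervical cancer cells given 40 pM IL-6 alongside compound; SIE-controlled beta-lactamase reporter measured as 460/530 nm FRET emission ratio; top concentration of the series differs between compounds; % is set by controls: 0 for no effect and ±100 for the full control effect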
# Method in brief: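 ME-180 SIE-bla cells; overnight plating; cpd + IL-6 40 pM, 5 h, 37 C; LiveBLAzer 2.5 h RT; 460/530 nm emission ratio. Normalized to 300 pM IL-6 and 125 nM JAK inhibitor controls.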
# [3] = qHTS Assay for Identification of Small Molecule Agonists for Hypoxia Response Element Signaling Pathway (AID 914; active = well fitted activation curve with a large enough effect in the signal ratio, with a control signal flat, not every such curve was filed as active; inconclusive = small, poorly fitted or top-dose-only effect, or effect the other way, or a change in a side signal; the % refers to the signal ratio; note: potency is the fitted concentration of half-maximal effect; for activation: top concentration of the series differs between compounds; % of control where 0% means no effect); conditions: ME-180 HRE-bla reporter, beta-lactamase ratio, CoCl2, 17 h; activation: active compounds read high
# Method in brief: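 Cells were plated overnight, pin-dosed with compound in a titration series, co-stimulated with EC50 CoCl2 and incubated 17 hours at 37 degrees Celsius. CCF4 substrate was then loaded, and AC50 values came from the 460nm/530nm ratio.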
# [4] = molecular target: Cytochrome P450 2C19 (Homo sapiens) (UniProt P33261); assay: qHTS Assay for Inhibitors and Substrates of Cytochrome P450 2C19 (AID 899; active = well fitted curve in the direction sought with a large enough effect; inconclusive = small, poorly fitted or top-dose-only effect, or another doubt; inactive = no such curve, though single readings can be large; an effect the other way counts as inactive or inconclusive; note: potency is the fitted concentration of half-maximal effect; nearly all actives have a fitted effect of over 60% in size)
# UniProt P33261, sequence (P33261 whole entry, looked up): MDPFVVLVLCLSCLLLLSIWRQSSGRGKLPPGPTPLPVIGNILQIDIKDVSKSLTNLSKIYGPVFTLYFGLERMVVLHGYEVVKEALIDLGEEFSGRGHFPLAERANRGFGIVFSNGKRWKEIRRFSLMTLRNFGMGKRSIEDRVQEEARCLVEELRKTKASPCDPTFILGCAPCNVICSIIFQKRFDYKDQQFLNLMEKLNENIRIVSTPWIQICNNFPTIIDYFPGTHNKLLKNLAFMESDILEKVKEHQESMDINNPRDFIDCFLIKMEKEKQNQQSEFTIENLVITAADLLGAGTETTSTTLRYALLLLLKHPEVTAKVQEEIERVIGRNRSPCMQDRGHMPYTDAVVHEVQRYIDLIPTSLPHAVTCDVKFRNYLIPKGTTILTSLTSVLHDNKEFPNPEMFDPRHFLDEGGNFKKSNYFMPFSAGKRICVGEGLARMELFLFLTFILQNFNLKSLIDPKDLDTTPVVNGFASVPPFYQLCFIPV
# Method in brief: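 Signal comes from luciferase acting on luciferin released by CYP2C19-mediated hydroxylation of Luciferin-H EGE, 10uM (KM). Assay mix: 5nM enzyme, 50mM KPO4; 60 min at 37C with NADPH regeneration. Data normalized against 57uM ketoconazole.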
# [5] = molecular target: Mitogen-activated protein kinase 10 (Mus musculus) (UniProt Q61831); assay: JNK3 AlphaScreen Assay (AID 530); conditions: JNK3 lysate, c-Jun phosphorylation; activity change, negative = inhibition: at 57.1 µM (top of the series);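 note: kinase came from lysate of stimulated human HepG2 cells; signal reports phosphorylation of biotinylated GST-cJun 1-79 at Ser73 with 10 µM ATP; potency is the fitted concentration of half-maximal effect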
# Method in brief: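 qHTS format: compounds tested as titrations against IL-1beta/TNF-alpha-activated HepG2 lysate JNK3 with biotin-GST-cJun substrate and 10 uM ATP at room temperature. Loss of anti-phospho-cJun AlphaScreen signal indicates inhibition.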
# [6] = qHTS Assay for Identification of Small Molecule Antagonists for Thrombopoietin (TPO) Signaling Pathway (AID 918; active = well fitted curve in the direction sought with a large enough effect; inconclusive = small, poorly fitted or top-dose-only effect, or another doubt; inactive = no such curve, though single readings can be large; an effect the other way counts as inactive or inconclusive; note: nearly all actives have a fitted effect of over 60% in size); conditions: TPO-dependent cell signaling reporter, antagonist mode; activity change, negative = inhibition: at 38.5 µM (top of the series)
# Method in brief: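 First, Ba/F3 reporter cells expressing human TPO receptor were held overnight without IL-3. Next, compound and 26 pM TPO were added. After 24 hrs incubation at 37 C, luciferase luminescence under the Glycoprotein IIb promoter was recorded.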
# [7] = qHTS Assay for Identification of Small Molecule Antagonists for NFkB Signaling Pathway (AID 895; active = well fitted inhibition curve with a large enough effect in the signal ratio, with a control signal flat, not every such curve was filed as active; inconclusive = small, poorly fitted or top-dose-only effect, or effect the other way, or a change in a side signal; the % refers to the signal ratio; note: % is set by controls: 0 for no effect and ±100 for the full control effect); conditions: NFkB beta-lactamase reporter cells, FRET ratio 460/530, stimulated with 10 pM TNF alpha; activity change, negative = inhibition: at 38.3 µM (top of the series)
# Method in brief: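 ME-180 NFkB-bla cells (beta-lactamase under NFkB response element), plated overnight, treated with compound then 10 pM TNF alpha (about EC50) for 5 hrs at 37 C. LiveBLAzer FRET read at 460/530 nm emission, 405 nm excitation.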
# Tags give direction and shape of the fitted curve or compound fluorescence and quenching.
smiles,measurement,setting,value
CN(C)c1ccc(-c2nn3c(-c4ccc(Cl)cc4)nnc3s2)cc1,"activity change, negative = inhibition",[1],inconclusive: 50.8% [activator]
same,"activity, negative = inhibition",[2],inconclusive: 91.2% [activator] [at 17.2 µM]
same,Potency,[3],active: 10 µM
CCCSc1nc(N2CCCC2)c2c(c1C#N)CC(C)(C)OC2,"activity change, negative = inhibition",[1],inconclusive: -66.6% [inhibitor]
same,"activity, negative = inhibition",[2],inactive: 6.07% [at 17.2 µM]
same,Potency,[3],"inconclusive: 7.94 µM [inhibitor, partial curve]"
CCOC(=O)CSc1nnc2n(Cc3ccccc3)c(=O)c3c4c(sc3n12)CCC4,"activity change, negative = inhibition",[1],inconclusive: -66.2% [inhibitor]
same,"activity, negative = inhibition",[2],inconclusive: 70.4% [activator] [at 17.2 µM]
same,Potency,[3],"inconclusive: 12.6 µM [inhibitor, partial curve]"
CN(C)c1ncc2nc(-c3ccc(Cl)cc3)c(=O)n(C)c2n1,"activity change, negative = inhibition",[1],inconclusive: 36.7% [activator] [at 7.69 µM]
same,"activity, negative = inhibition",[2],inconclusive: 41.4% [activator]
same,Potency,[3],"inconclusive: 3.98 µM [activator, single point]"
OC[C@@H]1O[C@@H](n2cnc3c(SCc4ccccc4)ncnc32)[C@@H](O)[C@H]1O,"activity change, negative = inhibition",[1],inconclusive: 39.2% [activator] [at 7.69 µM]
same,"activity, negative = inhibition",[2],inconclusive: 41.6% [activator]
same,activation,[3],inconclusive: 30.2%
Cc1c2cnccc2c(C)c2c1c1ccccc1n2CCOC(=O)c1ccccc1,"activity change, negative = inhibition",[1],inactive: -4.41% [at 7.69 µM]
same,"activity, negative = inhibition",[2],inconclusive: 105% [activator]
same,Potency,[4],"inconclusive: 0.794 µM [inhibitor, partial curve, poor fit]"
same,activation,[3],inconclusive: -74.2%
CN1C(=O)C2(N=c3ccccc3=N2)c2ccccc21,"activity change, negative = inhibition",[1],inactive: 25.6%
same,"activity, negative = inhibition",[2],inconclusive: 21.2% [activator] [at 17.2 µM]
same,activation,[3],inconclusive: -37.2%
CCCSc1nnc(NC(=O)Nc2ccc(F)cc2)s1,"activity change, negative = inhibition",[1],inconclusive: -75.9% [inhibitor]
same,"activity, negative = inhibition",[2],inconclusive: -38.8% [inhibitor] [at 17.2 µM]
same,Potency,[3],"inconclusive: 2 µM [inhibitor, full curve]"
Clc1ccc2nc(N3CCNCC3)nc(-c3ccccc3)c2c1,"activity change, negative = inhibition",[1],inconclusive: 70.2% [activator]
same,"activity, negative = inhibition",[2],inconclusive: 91.2% [activator] [at 17.2 µM]
same,Potency,[3],"inconclusive: 10 µM [fluorescent, side channel, partial curve]"
CCCCCCSC1=C(C#N)C(c2ccccc2)CC(=O)N1 (configuration not stated),"activity change, negative = inhibition",[1],inconclusive: -33.8% [inhibitor]
same,"activity, negative = inhibition",[2],inactive: -19.8% [at 17.2 µM]
same,Potency,[3],"inconclusive: 15.8 µM [inhibitor, single point]"
Cc1cc(Nc2ccc(N=Nc3ccc(O)c4ncccc34)cc2)nc(C)n1,"activity change, negative = inhibition",[1],inconclusive: -85.1% [inhibitor] [at 7.69 µM]
same,"activity, negative = inhibition",[2],inconclusive: -39.6% [inhibitor]
same,Potency,[3],"inconclusive: 2 µM [inhibitor, partial curve]"
Oc1ccccc1-c1nc(NCc2ccco2)c2ccccc2n1,"activity change, negative = inhibition",[1],inconclusive: -53.6% [inhibitor]
same,"activity, negative = inhibition",[2],inconclusive: -53% [inhibitor] [at 17.2 µM]
same,Potency,[3],"inconclusive: 5.01 µM [inhibitor, full curve]"
CC(C)(C)c1nnc2sc(SCC(=O)c3ccccc3)nn2c1=O,"activity change, negative = inhibition",[1],inconclusive: -43.2% [inhibitor]
same,"activity, negative = inhibition",[2],inconclusive: -36.2% [inhibitor] [at 17.2 µM]
same,Potency,[3],"inconclusive: 7.94 µM [activator, partial curve]"
Cc1ccccc1-c1nn2c(-c3ccccc3)nnc2s1,"activity change, negative = inhibition",[1],inconclusive: -44.5% [inhibitor]
same,"activity, negative = inhibition",[2],inconclusive: 38.2% [activator] [at 17.2 µM]
same,Potency,[3],"inconclusive: 6.31 µM [inhibitor, partial curve]"
C[C@@]12C=CC(=O)C=C1CC[C@@H]1C2=CC[C@]2(C)[C@@H]1CC[C@H]2C(=O)CN1CCN(c2cc(N3CCCC3)nc(N3CCCC3)n2)CC1,Potency,[5],"inconclusive: 15.8 µM [inhibitor, single point]"
same,"activity change, negative = inhibition",[6],inconclusive: -21.9% [phenotype inactive]
C=C/C(C)=C/[C@]1(C)SC(=O)C(C)=C1O,Potency,[5],"inconclusive: 0.00158 µM [inhibitor, full curve, poor fit]"
same,Potency,[7],inactive
